Results published in the supplement of paper PMC4723716.
± gives the uncertainty stated by the source. Over roughly 9,900 compounds, “viability index relative to DMSO control” has its median near 1; the lowest 2% begin near 0.85. Some of the results follow.

Each compound was assayed on Plasmodium falciparum NF54 stage V gametocytes (assay: viability index relative to DMSO control (fraction); higher = less gametocyte killing). Details: 2.5 µM, library set: Broad Institute DOS, incubation time: 72 h.
Procedure, shortened: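 P. falciparum NF54 stage V gametocytes (serum-free medium, 0.75% gametocytemia, 1.25% hematocrit) were exposed to compound at 2.5 µM for 72 hr at 37°C under low oxygen, then stained with MitoTracker Red CMXRos and saponin for one to two hours. Red particles of 20–70 µm2 in one field per well were counted, and the viability index is that count scaled to the plate mean of solvent-only wells.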

Row | SMILES | viability index
1 | O=C(C[C@@H]1CC[C@@H]2[C@H](COC[C@H](O)CN2Cc2cc(F)ccc2F)O1)NCc1ccc(Oc2ccccc2)cc1 | 1.03 ± 0.0057
2 | COc1ccccc1-c1cnc2c(c1)C(=O)N([C@@H](C)CO)C[C@H](C)[C@@H](CN(C)C(=O)CC1CC1)O2 | 1.08 ± 0.015
3 | C[C@H](CO)N1C[C@H](C)[C@H](CN(C)C(=O)Nc2ccc3c(c2)OCO3)OCCCC[C@H](C)Oc2ccc(NS(=O)(=O)c3ccc(F)cc3)cc2C1=O | 1.05 ± 0.1
4 | CCCC#Cc1ccc([C@@H]2[C@@H](CO)N3C(=O)CN(S(=O)(=O)c4ccccc4C)C[C@@H]23)cc1 | 1.06 ± 0.081
5 | O=C(Cc1ccccn1)N1CC[C@@H]2[C@H]1c1cc(-c3cccc(F)c3)ccc1N[C@@H]2CO | 1.099 ± 0.0021
6 | CN1c2ccc(-c3ccccc3)cc2[C@H]2[C@H](CCN2C(=O)CC2CC2)[C@@H]1CO | 1.03 ± 0.04
7 | N#C[C@H]1[C@H](c2ccccc2-c2ccccc2F)[C@H](CO)N1C(=O)Cc1ccccc1 | 1.05 ± 0.14
8 | C/C=C/c1cnc2c(c1)C(=O)N([C@H](C)CO)C[C@@H](C)[C@H](CN(C)C(=O)Nc1cccc(OC)c1)O2 | 1.02 ± 0.018
9 | Cc1ccc(S(=O)(=O)Nc2ccc3c(c2)C(=O)N([C@H](C)CO)C[C@H](C)[C@@H](CN(C)S(=O)(=O)c2cccs2)OCCCC[C@H](C)O3)cc1 | 1.12 ± 0.06
10 | CC(C)NC(=O)N[C@H]1CC[C@@H](CC(=O)NCCCN(C)C)O[C@@H]1CO | 0.986 ± 0.083
11 | C[C@H](CO)N1C[C@H](C)[C@@H](CN(C)C(=O)[C@@H]2CCCN2C)OCc2ccccc2-c2ccccc2C1=O | 0.986 ± 0.046
12 | CCCC(=O)N1C[C@H]2[C@@H](c3ccccc31)[C@H](CO)N2C(=O)Nc1ccc(F)cc1 | 0.96 ± 0.21
13 | Cc1ccc(CN2CC(=O)N3[C@H](C2)[C@H](c2ccc(-c4ccccc4F)cc2)[C@@H]3CO)cc1 | 1.05 ± 0.015
14 | COc1ccc(S(=O)(=O)N2CC[C@@H]3[C@H](CO)Nc4ccc(Br)cc4[C@@H]32)cc1 | 1.096 ± 0.0085
15 | C[C@H]1CN([C@@H](C)CO)C(=O)c2ccccc2-c2ccccc2CO[C@@H]1CN(C)C(=O)Nc1ccc(-c2ccccc2)cc1 | 0.9604 ± 0.0088
16 | Cc1cccc(S(=O)(=O)N[C@H]2CC[C@@H](CCNC(=O)Nc3cc(F)ccc3F)O[C@H]2CO)c1 | 1.1 ± 0.046
17 | CO[C@H](CN(C)C(=O)c1cnccn1)[C@@H](C)CN([C@@H](C)CO)S(=O)(=O)c1ccccc1 | 1.048 ± 0.0082
18 | COc1ccc(CNC(=O)C[C@H]2CC[C@H](NC(=O)CN(C)C)[C@@H](CO)O2)cc1 | 1.1 ± 0.008
19 | COc1cccc(C(=O)Nc2ccc3c(c2)OC[C@H](C)N(CCc2ccccc2)C[C@@H](C)[C@H](OC)CN(C)C3=O)c1 | 1.03 ± 0.02
20 | O=C(C[C@@H]1C[C@H]2c3cc(NC(=O)c4cccnc4)ccc3O[C@H]2[C@@H](CO)O1)NCc1cc(F)ccc1F | 1.09 ± 0.045
21 | Cc1ccc(S(=O)(=O)N(C)C[C@@H]2Oc3cc(C#CC4CCCC4)ccc3S(=O)(=O)N([C@@H](C)CO)C[C@@H]2C)cc1 | 0.837 ± 0.055
22 | CN1c2ccc(-c3ccc(F)cc3)cc2[C@H]2[C@H](CCN2C(=O)Cc2cccnc2)[C@H]1CO | 1.14 ± 0.081

Row | SMILES | viability index
23 | CCCC(=O)Nc1ccc2c(c1)OC[C@H](C)N(CC1CCOCC1)C[C@H](C)[C@H](OC)CN(C)C2=O | 1 ± 0.089
24 | CN(C)C(=O)c1cccc(-c2ccc3c(c2)[C@H]2[C@H](CCN2C(=O)c2cnccn2)[C@H](CO)N3)c1 | 1.1 ± 0.035
25 | O=C(C[C@@H]1C[C@H]2c3cc(NC(=O)c4ccc5c(c4)OCO5)ccc3O[C@H]2[C@@H](CO)O1)NCc1ccc(Oc2ccccc2)cc1 | 1.147 ± 0.0087
26 | CN(C)CCCNC(=O)C[C@@H]1CC[C@@H]2[C@H](COC[C@H](O)CN2CC2CC2)O1 | 1 ± 0.088
27 | COc1ccccc1NC(=O)N1[C@H](CO)[C@@H](c2ccccc2)[C@@H]1C#N | 1.056 ± 0.0046
28 | O=C(C[C@H]1C[C@@H]2c3cc(NC(=O)Nc4ccccc4F)ccc3O[C@@H]2[C@H](CO)O1)NCc1ccccn1 | 1.05 ± 0.048
29 | CN1CCN(C(=O)c2cc3c(c(-c4cccc(C5=CCCC5)c4)n2)[C@H](CCO)N([S@@](=O)C(C)(C)C)C3)CC1 | 0.927 ± 0.032
30 | O=C(NC[C@@H]1N[C@@H](CO)[C@H]1c1ccccc1)c1ccccc1F | 0.9305 ± 0.0066
31 | Cc1noc(C)c1NC(=O)N[C@H]1C=C[C@@H](CC(=O)Nc2ccc(-c3ccccc3)cc2)O[C@@H]1CO | 1.013 ± 0.0059
32 | Cc1noc(C)c1S(=O)(=O)Nc1ccc2c(c1)C(=O)N([C@@H](C)CO)C[C@@H](C)[C@H](CN(C)Cc1ccc(C(=O)O)cc1)OCCCC[C@H](C)O2 | 1.17 ± 0.051
33 | O=C(Nc1ccccc1)[C@@H]1[C@@H](CO)[C@@H]2Cn3c(cccc3=O)[C@H]1N2C(=O)c1ccc(F)cc1 | 1.04 ± 0.1
34 | COc1cccc(C(=O)Nc2ccc3c(c2)OC[C@@H](C)N(CCc2ccccc2)C[C@@H](C)[C@@H](OC)CN(C)C3=O)c1 | 1.08 ± 0.038
35 | COc1cccc(S(=O)(=O)Nc2ccc3c(c2)[C@H]2C[C@H](CC(=O)NC4CCCCC4)O[C@H](CO)[C@H]2O3)c1 | 1.09 ± 0.011
36 | CN1C(=O)c2cc(NC(=O)C3CCOCC3)ccc2OC[C@@H]2O[C@@H](CC(=O)NCc3ccccc3F)CC[C@@H]21 | 1 ± 0.069
37 | CN1C(=O)c2cc(NC(=O)c3ccc(C(F)(F)F)cc3)ccc2OC[C@@H]2O[C@H](CC(=O)NCc3ccc4c(c3)OCO4)CC[C@@H]21 | 0.979 ± 0.013
38 | C[C@@H]1CN([C@H](C)CO)C(=O)CCCn2nncc2CO[C@@H]1CN(C)C(=O)c1ccc2ccn(C)c2c1 | 1.07 ± 0.092
39 | CC(C)[C@@H]1COCc2cn(nn2)CCC[C@@H](C)C(=O)N1 | 1.02 ± 0.03
40 | O=C(Nc1nccs1)[C@H]1[C@H](CO)[C@H]2Cn3c(ccc(-c4cncnc4)c3=O)[C@H]2N1CC1CCCC1 | 1.01 ± 0.13
41 | C[C@@H]1CN([C@H](C)CO)C(=O)c2c(c3ccccc3n2C)-c2ccccc2CO[C@H]1CN(C)S(=O)(=O)c1ccc([N+](=O)[O-])cc1 | 0.993 ± 0.058
42 | C/C=C/c1ccccc1[C@H]1[C@H](C#N)N(C(=O)c2cccnc2)[C@H]1CO | 1.035 ± 0.0044
43 | C[C@@H]1CN([C@H](C)CO)C(=O)c2cc(N(C)C)ccc2O[C@H]1CN(C)Cc1ccc(Oc2ccccc2)cc1 | 0.953 ± 0.069
44 | COc1ccccc1CN1[C@H](CO)[C@H]2c3ccccc3N(C(=O)c3cccnc3)C[C@H]21 | 1.06 ± 0.084
